These results are taken from ChEMBL document CHEMBL4888484, “Replenishing the malaria drug discovery pipeline: Screening and hit evaluation of the MMV Hit Generation Library 1 (HGL1) against asexual blood stage Plasmodium falciparum ,using a nano luciferase reporter read-out” (2022).

About 540 (0.36%) of roughly 150,000 compounds showed an effect of 50% or more. The list shows a part of the results.

In general, % Inhibition refers to the change of the read-out against control, counted positive when it falls.

In the assay the test system is Plasmodium falciparum. Briefly: Primary screen in NF54 nanoGlo assay, in single point, at 2uM, 72h; a lower Z score goes with more inhibition. It counts as functional, Erythrocyte. As to conditions: timepoint 72 hour.
Turning to `CCCc1noc(CCC(=O)N[C@@H](C)CC)n1`, the “% Inhibition” value is recorded as -1% and the Z score came to 0.13.
Take `CCn1cc(C(=O)Nc2nnc([C@H](C)OC)s2)cn1`: the “% Inhibition” value is listed as -4% and the Z score is listed as 0.74.
`CC(NC(=O)Cc1cccc(N)c1)C1CCN(Cc2ccccc2)C1` (stereo unspecified): the “% Inhibition” value came out at 5% and the Z score is on record as -0.97.
`c1cnc(-c2noc(C3CN(Cc4ccoc4)C3)n2)cn1`: the “% Inhibition” value is on record as -9% and the Z score was 1.67.
On to `N#Cc1c([C@H]2CCOC2)cc(-c2ccc(Cl)cc2Cl)nc1N`, for which the “% Inhibition” value is on record as -11% and the Z score is recorded as 1.09.
As for `CCc1nc(-c2nn(C)cc2Cl)n(CCO)n1`, the “% Inhibition” value stood at 2% and the Z score is -0.28.
The like results for `CC1(C)CCCN1S(=O)(=O)c1onc(C2CC2)c1Cl` were, in that order, -3% and 0.41.
Turning to `COc1ccc(Cl)cc1[C@@H](O)CNC(=O)c1c(C2CCC2)cnn1C`, the “% Inhibition” value was 20% and the Z score is -2.35.
On to `Cc1csc(CNC(=O)N[C@H]2COC[C@@H]2O)c1`, for which the “% Inhibition” value came out at 14% and the Z score is -1.8.
In the same order, the values of `c1cnc(N2CCN(Cc3cc(-c4ccncc4)no3)CC2)nc1` are -18% and 1.95.
On to `O=C1CN(CCc2ccccc2)CCN1`, for which the “% Inhibition” value was -8% and the Z score is on record as 1.47.
Consider `CC[C@H](C)n1nnc2cc(S(=O)(=O)N(C)CC(=O)NCCC(C)C)ccc21`, for which the “% Inhibition” value is given as -13% and the Z score is recorded as 1.19.
As to `O=C(Nc1nc2ccc(F)cn2n1)c1ncccc1Br`, the “% Inhibition” value is recorded as -8% and the Z score amounted to 1.01.
Consider `CC(=O)NCc1csc(C2CCN(S(=O)(=O)c3cccc(F)c3)CC2)n1`, for which the “% Inhibition” value is recorded as 1% and the Z score was -0.1.
In the same order, the values of `O=S1(=O)CCN(OCc2ccc(Cl)cc2)CC1` are 33% and -1.45.
In the same order, the values of `COc1cc(C)c(-c2nc(CN(C)Cc3nccs3)c(C)o2)cc1C` are -8% and 1.18.
Regarding `CCn1cc(CNC(=O)c2cc(-c3cc(OC)ccc3OC)nc3ccccc23)cn1`, the “% Inhibition” value was -8% and the Z score was determined as 1.02.
`CCN(CC)C(=O)CCc1ccnc(N(CC)CC)c1`: the “% Inhibition” value is -14% and the Z score is 1.51.
Take `Cc1ccc2c(C(=O)NC[C@]3(O)CCS(=O)(=O)C3)csc2c1`: the “% Inhibition” value is on record as -1% and the Z score was determined as 0.09.
As for `CCN(C)c1ccc(CNc2ccc3nnnn3n2)cc1F`, the “% Inhibition” value is listed as -21% and the Z score stood at 3.31.
In the same order, the values of `Cc1ccc(C(=O)Nc2ccc3c(c2)cc(C(=O)NCCN2CCOCC2)n3Cc2cccc(F)c2)cc1` are 4% and -0.49.
As to `Cc1noc(C)c1S(=O)(=O)NC[C@@](O)(c1ccccc1)C1CC1`, the “% Inhibition” value is on record as -2% and the Z score amounted to 0.26.
Take `C#CCCC1(CCC(=O)N2CCCC[C@H](CCOC)C2)N=N1`: the “% Inhibition” value is given as -12% and the Z score turned out to be 1.64.
For the molecule `CC1CN(C2CCN(S(=O)(=O)c3ccc(F)cc3)CC2)CC(C)O1` (stereo unspecified), the “% Inhibition” value worked out at 5% and the Z score is reported as -0.78.
As to `COc1ccc(NC(=O)[C@@H]2CC(=O)Nc3c(-c4ccccc4OC)cnn32)cc1Cl`, the “% Inhibition” value is -2% and the Z score is recorded as 0.22.
As to `CCCCn1ncnc1C1(c2ccccc2F)CC1`, the “% Inhibition” value is -12% and the Z score turned out to be 1.52.
Regarding `COc1cccc(CN2CC(n3cc(C(=O)N(C)C)nn3)C2)c1`, the “% Inhibition” value is reported as -7% and the Z score stood at 1.38.
Regarding `Cc1ccc(S(=O)(=O)N(CC(=O)N[C@@H]2C[C@H]3CC[C@@H]2C3)c2cccc(Br)c2)cc1`, the “% Inhibition” value was -15% and the Z score was found to be 2.16.
In the same order, the values of `O=C(Nc1ccccc1)c1ccc(Cn2c(C(F)(F)F)nc3ccccc32)cc1` are -1% and 0.18.
In the same order, the values of `O=S(=O)(C1COC1)N1CC(C2CC2)C1C1CC1` (stereo unspecified) are -2% and 0.35.
`COc1ccc(CNC(=O)C(=O)NCc2cccnc2)cc1`: the “% Inhibition” value turned out to be 6% and the Z score is on record as -0.8.
As to `CCCN1CCN(c2ncc3c(n2)CCN(Cc2ccccc2F)C3)CC1`, the “% Inhibition” value was 2% and the Z score was -0.33.
In the case of `CCOC(=O)Cn1nc(C)c(NC(=O)c2cnccn2)c1C`, the “% Inhibition” value is recorded as 30% and the Z score is reported as -3.35.
Regarding `CC(C)c1nn(C)c2nc(-c3cccc(OCC(N)=O)c3)[nH]c12`, the “% Inhibition” value is -6% and the Z score came to 0.53.
With `COc1ccnc(CNC(=O)c2cccc(S(=O)(=O)N3CC(O)C3)c2)c1`, the “% Inhibition” value is given as -6% and the Z score was 0.8.
As for `Cn1cc(CNC(=O)[C@H]2CCC(=O)N(C3CCCCCC3)C2)cn1`, the “% Inhibition” value was -14% and the Z score is on record as 1.97.
Regarding `O=C(c1cnc2ccc(F)cc2c1N1CCN(c2ccccn2)CC1)N1CCCC1`, the “% Inhibition” value was determined as 28% and the Z score is recorded as -0.08.
For `Cc1ccc(Cc2c(C)nn(-c3nc(C)c(C(=O)Nc4ccccc4F)s3)c2C)cc1`, the “% Inhibition” value is on record as -20% and the Z score was determined as 1.73.
The like results for `CC(C)[C@H](NC(=O)N1CCC(n2cc(C(N)=O)nn2)CC1)C1CC1` were, in that order, 1% and -0.12.
On to `O=C(CN1C(=O)OC[C@@H]1c1ccccc1)N(Cc1nccs1)C1CC1`, for which the “% Inhibition” value is recorded as -1% and the Z score was 0.11.
Take `Cn1ccc2c(CN3CCN4CCNC(=O)[C@@H]4C3)cccc21`: the “% Inhibition” value is listed as -18% and the Z score is reported as 3.4.
In the same order, the values of `O=C(c1cnc2[nH]nnc2c1)N1CCC(F)(F)C1` are -5% and 0.73.
Consider `Cc1nn([C@@H](C)C(=O)NC(C)C)cc1Br`, for which the “% Inhibition” value was determined as 2% and the Z score is -0.23.
